Data as given in PubChem BioAssay AID463173 (ICCB-Longwood Screening Facility, Harvard Medical School, 2010).
Out of some 52,000 compounds screened, about 4,300 (8.3%) were called active. No stated cut-off is given here; in the data, active means survival mostly below about 52% (no sharp cut-off); inactive means mostly above about 56%. The list shows a part of the results.

Test system: DeltatarO mutant
Assay: S. aureus survival, RN4220 and DeltatarO strains – OD600, teichoic acid synthesis inhibitors, primary screen (AID 463173)
Conditions: S. aureus RN4220 wild type/DeltatarO growth, OD600, 18 h, stronger effect = lower value, screened at 18.75 µg/mL (by protocol)

Compound | survival
CC1(C)CC(NC(=O)Cc2ccc(Cl)cc2)CC(C)(C)N1 | inactive: 83%
Cc1nonc1OCCn1nnc(N)n1 | inactive: 95%
COc1ccc(C(=O)Nc2ccc(-c3cc4ccccc4oc3=O)c(C)c2)cc1OC | inactive: 69%
CC(C)CNC(=O)C1CCCN1C(=O)Nc1ccccc1 (stereo not drawn) | inactive: 106%
CC(C)CCNC(=O)C1CCN(C(=O)N2CCOc3ccc(Cl)cc32)CC1 | inactive: 52%
CCOC(=O)N1CCN(c2cc3cc(OC)ccc3oc2=O)CC1 | inactive: 67%
O=C(C1CCC(Cn2c(=O)c3sccc3n(Cc3cccc(F)c3)c2=O)CC1)N1CCCCC1 (stereo not drawn) | inactive: 92%
CC(=O)NC(C)C1COc2ccccc2O1 (stereo not drawn) | inactive: 81%
O=C(NCCc1ccccc1)C(=O)NCC(c1cccnc1)N1CCN(c2ccccc2F)CC1 (stereo not drawn) | inactive: 75%
COc1ccccc1Nc1nn2c(=O)c3ccc(C(=O)NCc4ccc(F)cc4)cc3nc2s1 | inactive: 78%
O=C(NC1CCCCCC1)c1ccc2c(c1)sc1nc(-c3ccccc3)cn12 | inactive: 55%
COc1cc(C2CC(=O)N(c3ccccc3)C3=C2C(=O)OC3)cc(OC)c1OC (stereo not drawn) | inactive: 72%
CCOC(=O)c1c(C)[nH]c(C)c1S(=O)(=O)N1CCCC(C(=O)Nc2ccc(F)cc2F)C1 (stereo not drawn) | inactive: 88%
CCOc1ccc(NC(=O)CSc2cn(CC(=O)N3CCCCCC3)c3ccccc23)cc1 | inactive: 95%
COc1ccc(-c2n[nH]c3c2C(c2ccc(O)cc2)N(c2ccc(Br)cc2)C3=O)cc1 (stereo not drawn) | active: -3%
CSc1cccc(NC(=O)N2CCN(c3cc(-c4noc(C)n4)ccc3C)CC2)c1 | inactive: 68%
CC(C)NC(=O)C(N)Cc1c[nH]c2ccccc12 (stereo not drawn) | inactive: 92%
CCOc1cc(C(=O)N2CCc3c([nH]c4ccccc34)C2c2ccccc2)cc(OCC)c1OCC (stereo not drawn) | inactive: 91%
CCCn1c(C(=O)OCC)cc2sccc21 | inactive: 100%
N#Cc1c[nH]n2c(NC3CCCC3)c(-c3cccc(Cl)c3)nc12 | inactive: 48%

Compound | survival
COc1ccc(C)cc1NC(=O)Cn1c(=O)ccc2cc(S(=O)(=O)N3CCCC3)ccc21 | inactive: 72%
CCOC(=O)c1sc2ncn(CC(=O)Nc3ccc(C)cc3Br)c(=O)c2c1C | inactive: 66%
O=C(CCCN1C(=O)c2ccccc2C1=O)N1CCCCC1 | inactive: 71%
O=c1onc(-c2ccc(Cl)cc2)n1Cc1ccc(F)cc1 | inactive: 90%
COc1ccc(/C=N/N=C2/NC(=O)/C(=C(/C)c3nonc3C)S2)cc1OC | inactive: 69%
OCC(O)CN1CCc2ccccc21 (stereo not drawn) | inactive: 98%
COc1ccccc1CNc1ccc(-c2nc(-c3ccncc3)no2)cc1[N+](=O)[O-] | active: 45%
Cn1c(CNc2cccc(Cl)c2)nnc1SCC(=O)OC1CCCCC1 | inactive: 94%
Cc1cc2ccccc2n1CCNC(=O)c1cccc(Cl)c1 | inactive: 65%
COc1ccc(CNC(=O)CC(c2ccc(OC)c(OC)c2)N2Cc3ccccc3C2=O)cc1 (stereo not drawn) | inactive: 87%
CC(C)c1ccc(NC(=O)c2cc(S(=O)(=O)NCc3ccccc3Cl)ccc2F)cc1 | inactive: 103%
CCOc1ccc(Sc2cc(C(=O)NCCc3ccccc3)c3ccccc3n2)cc1 | inactive: 73%
CCOc1nc(NC(=O)NS(=O)(=O)Oc2ccccc2)nc(-c2ccccc2)n1 | inactive: 70%
COc1cccc(CNC(=O)C2CCC(CNS(=O)(=O)c3ccc(Br)s3)CC2)c1 (stereo not drawn) | inactive: 71%
CCOC(=O)C(Cc1c[nH]c2ccccc12)NC(=O)COc1ccc(Cl)c(C)c1 (stereo not drawn) | active: 36%
CN(Cc1ccccc1)C(=O)c1ccco1 | inactive: 84%
CCc1ccc(Sc2cc(C(=O)NC(C)CC)c3ccccc3n2)cc1 (stereo not drawn) | inactive: 66%
COc1ccccc1-n1c(/C=C/c2c(C)n(C)c3ccccc23)nc2ccccc2c1=O | inactive: 87%
CCOc1ccc(OCC(=O)Nc2nnc3n2CCS3)cc1 | inactive: 67%
COc1ccc(-c2noc(CSc3nnc(-c4ccncc4)n3-c3ccc(C)cc3)n2)cc1 | inactive: 55%

Compound | survival
CCC(C)(C)n1nnnc1CN1CCC(NC(=O)COC)CC1 | inactive: 86%
CCc1ccccc1NC(=O)CSc1nc(-c2ccccc2OC)nc2c1Cc1c(CO)cnc(C)c1O2 | inactive: 73%
Cc1ccc2c(c1)cc1c(=O)n(CC(=O)NC3CCCCC3)nc(C)n12 | inactive: 104%
COC(=O)C(CCSC)NC(=O)c1cc2c(n(-c3ccc(C)cc3)c1=O)CC(C)(C)CC2=O (stereo not drawn) | inactive: 51%
Cc1cccn2c(=O)c3cc(C(=O)NCc4ccccc4)c(=N)n(CCOCCO)c3nc12 | inactive: 55%
CCOC(=O)c1ccc(N=C2NC(=O)/C(=C/c3ccc(N4CCOCC4)cc3)S2)cc1 | inactive: 98%
CCOC(=O)CC1c2cc(OCC)c(OCC)cc2CCN1C(=O)Nc1cccc(Cl)c1 (stereo not drawn) | active: 41%
Cc1nc2nc(SCC(=O)NCCc3ccc(Cl)cc3)nn2c(C)c1Cc1ccccc1 | active: 46%
COC(=O)c1sc2cccc(F)c2c1S(=O)(=O)N1CCN(c2ccc(F)cc2)CC1 | inactive: 81%
CCCSc1ncc(Cl)c(C(=O)Nc2nc3ccc(OCC)cc3s2)n1 | inactive: 63%
Cc1ccc(CNC(=O)c2ccc3c(=O)n(-c4ccccc4)c(=O)[nH]c3c2)cc1 | inactive: 84%
CC1=C(C(=O)Nc2ccccc2)C(c2ccc(C)o2)NC(=S)N1 (stereo not drawn) | active: 61%
Cc1ccc(S(=O)(=O)c2nc(-c3cccc(C)c3)oc2N2CCN(c3ccccc3)CC2)cc1 | inactive: 114%
COc1cc(OC)c(NC(=O)NCc2ccc3c(c2)CCN3C(=O)c2ccccc2)cc1Cl | inactive: 90%
Cc1cc(C)cc(N2CC34C=CC(O3)C(C(=O)OCC(=O)NC3CCCC3)C4C2=O)c1 (stereo not drawn) | inactive: 84%
Cc1ccc(C)c(NC(=O)Cn2cc(C(=O)c3ccc(Cl)cc3)c(=O)c3ccc(C)nc32)c1 | inactive: 74%
O=C(CC1C(=O)OCCN1Cc1ccccc1)Nc1ccc(F)cc1 (stereo not drawn) | inactive: 172%
CC1CCN(S(=O)(=O)c2ccc(C(=O)Nc3sc4c(c3C(N)=O)CC(C)(C)NC4(C)C)cc2)CC1 | inactive: 71%
